Some of the results follow.
Assays:
HSkMC = human skeletal muscle cells; experiment: cytotoxicity call (relative viability < 0.9); conditions: 10 µM
HepG2 = experiment: cytotoxicity call (relative viability < 0.9); conditions: 10 µM
S. aureus RN4220 = experiment: growth inhibition call (relative growth <= 0.2); conditions: 50 µM

SMILES | cytotoxicity call (HSkMC) | cytotoxicity call (HepG2) | growth inhibition call (S. aureus RN4220)
Cc1nn(CC(=O)O)c(=O)c2cccn12 | inactive | inactive | inactive
CC(C)NC(=O)Nc1cccc2c1O[C@@H](CN(C)C(=O)Nc1ccc3c(c1)OCO3)[C@H](C)CN([C@H](C)CO)C2=O | inactive | inactive | inactive
C[C@H](CO)N1C[C@H](C)[C@H](CN(C)S(=O)(=O)c2ccc(Cl)cc2)Oc2c(NC(=O)c3cnccn3)cccc2C1=O | inactive | inactive | inactive
C[C@@H]1CN([C@H](C)CO)C(=O)c2cc(NC(=O)Nc3ccc(C(F)(F)F)cc3)ccc2O[C@@H](C)CCCCO[C@H]1CN(C)Cc1ccc(C(F)(F)F)cc1 | active | active | inactive
Cc1noc(C)c1NC(=O)Nc1ccc2c(c1)C(=O)N([C@@H](C)CO)C[C@H](C)[C@H](CN(C)Cc1ccccc1)OCCCC[C@@H](C)O2 | inactive | inactive | inactive
COc1ccc(NC(=O)Nc2cccc3c2O[C@@H](CN(C)S(=O)(=O)c2cn(C)cn2)[C@@H](C)CN([C@@H](C)CO)C3=O)cc1 | inactive | inactive | inactive
O=C1[C@H]2C=NN[C@@H]2C(=O)N1Cc1ccccc1 | inactive | inactive | inactive
C[C@@H]1CCCCO[C@H](CN(C)C(=O)C2CCCCC2)[C@H](C)CN([C@@H](C)CO)C(=O)c2cc(NC(=O)c3ccncc3)ccc2O1 | inactive | inactive | inactive
COCCOC(=O)N1C(=O)[C@@]2(c3cc(C#CCCO)ccc31)[C@H](c1ccccc1OCCO)N1[C@H](c3ccccc3)[C@H](c3ccccc3)OC(=O)[C@H]1[C@@H]2C(=O)N1CCc2cc(OC)c(OC)cc2C1 | inactive | inactive | inactive
Cc1noc(C)c1S(=O)(=O)N(C)C[C@H]1Oc2ccc(NC(=O)C3CCCCC3)cc2CC(=O)N([C@H](C)CO)C[C@@H]1C | inactive | inactive | inactive
C[C@H]1CN([C@@H](C)CO)C(=O)c2cc(C#CCN(C)C)cnc2O[C@@H]1CN(C)C(=O)c1cnccn1 | inactive | inactive | inactive
Cc1cccc(S(=O)(=O)N2C[C@H](O)COC[C@H]3O[C@H](CC(=O)N4CCN(C)CC4)CC[C@@H]32)c1 | inactive | inactive | inactive
C[C@@H]1CN([C@H](C)CO)C(=O)c2cc(NS(=O)(=O)c3cccs3)ccc2O[C@H]1CN(C)S(=O)(=O)c1ccc(F)cc1 | inactive | inactive | inactive
C[C@@H]1CN([C@@H](C)CO)C(=O)c2cc(NS(=O)(=O)c3ccccc3)ccc2O[C@@H](C)CCCCO[C@@H]1CN(C)C(=O)CCC(F)(F)F | inactive | inactive | inactive
C[C@H](CO)N1C[C@H](C)[C@@H](CN(C)C(=O)c2ccccc2)OCCCC[C@H](C)Oc2ccc(NS(=O)(=O)c3ccc(Cl)cc3)cc2C1=O | inactive | inactive | inactive

Reference: the antibiotic and cytotoxicity screens of Wong et al. (2023)
